Where a name gives a salt, the structure may show the parent alone. The list shows a part of the results. The data scatter; read single values as rough.

The record followed here is the supplement of paper PMC11880418.
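Also: High-content imaging of ALDEFLUOR-stained cells with Hoechst-labelled nuclei in 384-well plates, triplicate wells, scored as Z-score against 0.1% DMSO vehicle, negative meaning fewer ALDHbr cells.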

The test has as its system T84. In words: ALDHbr (CSC) cell proportion score relative to DMSO vehicle (ratio to DMSO); breast (SUM159) / gastric (MKN45) / pancreatic (PANC1) / colon cancer lines; ALDHbr cells have high ALDH activity and are rich in cancer stem cells (CSC); higher = more CSC (ALDHbr) cells remaining. To be noted: 10 µM; 72 h.
Turning to `Cn1c(=O)c2c(ncn2CC(O)CO)n(C)c1=O` (configuration not stated) [Diprophylline], the ALDHbr stood at 0.926. To `CC(=O)O[C@H]1C[C@@H]2CC[C@@H]3[C@H](CC[C@@]4(C)[C@H]3C[C@H]([N+]3(C)CCCCC3)[C@@H]4OC(C)=O)[C@@]2(C)C[C@@H]1N1CCCCC1` [Vecuronium bromide] belongs 0.924; to `Fc1ccc(C(c2ccc(F)cc2)N2CCN(C/C=C/c3ccccc3)CC2)cc1` [Flunarizine dihydrochloride], 0.953; to `C=C1c2cccc(O)c2C(O)=C2C(=O)[C@]3(O)C(O)=C(C(N)=O)C(=O)[C@@H](N(C)C)[C@@H]3[C@@H](O)[C@H]12` [Methacycline hydrochloride], 0.778. The figure for `C[C@H](O)C(=O)Nc1c(I)c(C(=O)NC(CO)CO)c(I)c(C(=O)NC(CO)CO)c1I` [Iopamidol] is 1.24; for `NNCCc1ccccc1` [Phenelzine sulfate] it is 1.08; for `COc1cc2nc(N(C)CCCNC(=O)C3CCCO3)nc(N)c2cc1OC` (configuration not stated) [Alfuzosin hydrochloride] it is 0.994. The figure for `C[C@]12CC[C@@H]3c4ccc(OS(=O)(=O)O)cc4CC[C@H]3[C@@H]1CCC2=O` [Estropipate] is 0.982; for `CO[C@@]1(NC(=O)CSCC#N)C(=O)N2C(C(=O)O)=C(CSc3nnnn3C)CS[C@@H]21` [Cefmetazole sodium salt] it is 0.837. Turning to `CCS(=O)(=O)CCn1c([N+](=O)[O-])cnc1C` [Tinidazole], the ALDHbr was 0.935. The figure for `CC(C)NCC(O)c1ccc2ccccc2c1` (configuration not stated) [Pronethalol hydrochloride] is 0.986; for `CCc1c(C)[nH]c2c1C(=O)C(CN1CCOCC1)CC2` (configuration not stated) [Molindone hydrochloride] it is 1.05.
